The whole screen tested about 200,000 compounds, of which about 10 (0.005%) were called active. The inconclusive results got no clear call from the source; some entries with a clear call stand among them for comparison. Calls come from the whole dose curve; as a rule, active = well fitted inhibition curve with a large enough effect; inconclusive = small, poorly fitted or top-dose-only effect, or effect the other way, or another doubt; inactive = no such curve, though single readings can be large or run the other way. Potencies of inconclusive entries are left out as doubtful fits.
target: Lysosomal alpha-glucosidase (Homo sapiens) (UniProt P10253); assay: qHTS Assay for Inhibitors of Human alpha-Glucosidase as a Potential Chaperone Treatment of Pompe Disease; conditions: purified human GAA, 4-MU-alpha-glucoside fluorescence; activity change, negative = inhibition: at 76.9 µM (top of the series) unless noted;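 for activity change, negative = inhibition: plate controls were uninhibited enzyme wells for no effect and no-enzyme background for full effect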
How it was run: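 Endpoint fluorogenic read: 20 min room-temperature reaction of 4 nM human alpha-glucosidase with 400 uM 4-methylumbelliferyl-alpha-D-pyranoside, pH 5.0, quenched with 1M NaOH/1M glycine pH 10. AC50 from Hill modeling.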
Potency is the fitted concentration of half-maximal effect; tags give direction and shape of the fitted curve.

Compound	Potency	activity change, negative = inhibition
COc1ccc(NC(=S)N(CCCN2CCOCC2)Cc2cn(C)c3ccccc23)cc1OC	inactive	–
Cn1cnnc1SCC(=O)N1N=C2/C(=C/c3ccco3)CCCC2C1c1ccco1 (stereo not given)	inactive	–
Oc1ccccc1-c1nc2cnccn2c1Nc1ccc2c(c1)OCCO2	inconclusive [inhibitor, single point]	–
COc1ccc(OCC(=O)NNC(=O)CCc2ccccc2)cc1	–	inconclusive: 12.3% [activator]
COc1ccc(N2CCC(CNS(=O)(=O)c3cccc(C(F)(F)F)c3)C2)cc1 (stereo not given)	inconclusive [inhibitor, full curve, poor fit]	–
CCOC(=O)N1CCN(S(=O)(=O)c2ccc(C)cc2)C1c1ccc(OC)cc1 (stereo not given)	inconclusive [inhibitor, single point]	–
O=C(COC(=O)c1cccnc1Cl)c1ccc2c(c1)OCCO2	inconclusive [activator, full curve, poor fit]	–
Clc1cccc(CN2COc3c(cc(Cl)c4cccnc34)C2)c1	inconclusive [inhibitor, partial curve]	–
O=C(CNc1ccc2ccccc2c1)N/N=C/c1ccccn1	inconclusive [inhibitor, partial curve]	–
O=C1CC(SC(=Nc2ccccc2)Nc2ccccc2)C(=O)N1c1cccc(Cl)c1 (stereo not given)	inconclusive [inhibitor, single point]	–
Cc1ccccc1NC(=O)N1c2ccccc2CC1C (stereo not given)	–	inconclusive: 13.9% [activator]
NS(=O)(=O)c1ccc(N=Nc2c(=O)[nH]n3c(=O)c4c([nH]c23)CCCC4)cc1	inconclusive [inhibitor, partial curve]	–
C/C(=N\NC(=O)c1ccc(NS(=O)(=O)c2cccs2)cc1)c1ccc(C(C)(C)C)cc1	inconclusive [inhibitor, single point]	–
Cc1ccc2[nH]c(=O)c(C(c3nnnn3C3CCCC3)N3CCCc4ccccc43)cc2c1 (stereo not given)	inconclusive [inhibitor, full curve]	–
C/C(=N\NC(=O)COc1ccc(C(C)(C)C)cc1)c1ccc(OC(F)F)cc1	inconclusive [inhibitor, partial curve, poor fit]	–
Brc1ccc(NCc2nnc3n2CCCCC3)cc1	inconclusive [inhibitor, single point]	–
CC(/C=C/c1ccc(N(C)C)cc1)=N/N=C1/NC(=O)CC(C(=O)Nc2ccc(Cl)cc2)S1 (stereo not given)	inconclusive [inhibitor, partial curve, poor fit]	–
O=C(Nc1ccccc1F)c1ccc(Cn2cc(Br)cn2)cc1	inconclusive [inhibitor, full curve, poor fit]	–
CCCCn1c(SCC(=O)c2ccc(OCC)cc2)nc2cc(S(N)(=O)=O)ccc21	inconclusive [inhibitor, single point]	–
CCOC(=O)c1c(C)oc2c1c(C(c1cccnc1)N1CCOCC1)c(O)c1ccccc12 (stereo not given)	inactive	–
COCCC(=O)N1CCCC(CNS(=O)(=O)c2ccc(OC)cc2)C1 (stereo not given)	inconclusive [inhibitor, single point]	–
O=C(CSc1nc2ccccc2[nH]1)Nc1nc(-c2ccc(Br)cc2)cs1	inconclusive [inhibitor, partial curve, poor fit]	–

Compound	Potency	activity change, negative = inhibition
O=c1c2[nH]c3ccccc3c2ncn1CCC1=CCCCC1	–	inconclusive: -19.2% [inhibitor]
Cc1ccc(S(=O)(=O)Nc2cc(C)c(O)cc2C)cc1	inactive	–
Cc1cc(C)c2ccc3c(C)c(C)nc3c2[nH]1	inconclusive [inhibitor, single point]	–
CC(=O)Nc1ccc(OCC(O)Cn2nc(C)c(Br)c2C)cc1 (stereo not given)	inconclusive [inhibitor, single point]	–
NC(=NCCc1ccccc1)NS(=O)(=O)c1ccccc1	inconclusive [inhibitor, single point]	–
COc1ccc(C)cc1S(=O)(=O)N(C)CC(=O)NC1CCCCC1	inconclusive [inhibitor, single point]	–
CC(O)CNCCNCc1c(OCc2ccccc2)ccc2ccccc12 (stereo not given)	inconclusive [activator, single point]	–
CSc1ccc(C2c3[nH]c4ccccc4c3CCN2C(=O)c2ccnn2C)cc1 (stereo not given)	inconclusive [inhibitor, full curve, poor fit]	–
CC1CCN(C(=O)Cn2c(=O)n(Cc3ccc4c(c3)OCO4)c(=O)c3ccccc32)CC1	inconclusive [inhibitor, single point]	–
COc1cc(OC)cc(-c2nnc(SCc3cccnc3)o2)c1	–	inconclusive: -15.1% [inhibitor]
Cc1ccc2c(c1)[C@H]1OCC[C@H]1[C@@H](c1ccncc1)N2	inconclusive [inhibitor, partial curve]	–
O=C1C(N2CCOCC2)=C(n2nnc3ccccc32)C(=O)c2ccccc21	inactive	–
N#Cc1c(-c2ccccc2F)cc(-c2cccnc2)nc1N	inconclusive [activator, partial curve]	–
Cc1ccc2nc(Cl)nc(-c3ccccc3)c2c1	–	inconclusive: 16.3% [activator]
CCOC(=O)N1CC=C2C(C#N)=C(N)C(C#N)(C#N)[C@H](c3ccc(OC(C)C)c(OCC)c3)[C@H]2C1	–	inconclusive: -18% [inhibitor]
COC(=O)c1cc(NC(=O)C2(S(=O)(=O)c3ccc(C)cc3)CC2)cc(C(=O)OC)c1	inconclusive [inhibitor, partial curve]	–
O=C(c1ccc2ccccc2n1)N1CCN(c2ccccc2O)CC1	inconclusive [inhibitor, full curve, poor fit]	–
O=C(c1ccc(S(=O)(=O)Nc2ccc(F)cc2)cc1)N1CCN(c2ccccn2)CC1	inconclusive [inhibitor, partial curve, poor fit]	–
CCCCC(=O)OCC(=O)Nc1ccc(SC(F)F)cc1	inconclusive [inhibitor, full curve]	–
COc1cc(/C=C/C(C)=O)cc(OC)c1OC	inconclusive [inhibitor, single point]	–
COC(=O)c1ccccc1NC(=O)CN(C)S(=O)(=O)c1ccc(OC)c(C)c1	inconclusive [inhibitor, partial curve]	–
O=C(Cn1c(=O)n(Cc2ccco2)c(=O)c2c3c(sc21)CCCCC3)c1ccccc1	inconclusive [inhibitor, full curve, poor fit]	–

Compound	Potency	activity change, negative = inhibition
O=C1OC(/C=C/c2ccc(Cl)cc2)=NC/1=C/c1ccco1	inconclusive [inhibitor, single point]	–
CCOC(=O)Cn1nnnc1CN(Cc1ccc(OC)cc1)Cc1cc2cc(C)ccc2[nH]c1=O	inconclusive [inhibitor, single point]	–
CC(C)c1nc2sc3ccccc3c(=O)c2c(=O)n1Cc1ccccc1	inconclusive [inhibitor, partial curve, poor fit]	–
COc1ccccc1NC(=O)CSc1nc2n[nH]c(C)c2c(=N)n1-c1ccccc1Cl	inconclusive [inhibitor, full curve, poor fit]	–
Cc1nn(-c2cc(N3CCCC3)ccc2[N+](=O)[O-])c(=O)c2ccccc12	inactive	–
COc1ccc(CCN(C)c2ccc(S(=O)(=O)N3CCCC3)cc2[N+](=O)[O-])cc1OC	inconclusive [inhibitor, partial curve, poor fit]	–
CCN(CC)C(=O)Cn1nnc(-c2ccc(S(C)(=O)=O)cc2)n1	–	inconclusive: -20.9% [inhibitor]
S=c1[nH]nc(Cn2nnc3ccccc32)n1-c1ccccc1	–	inconclusive: 14.9% [activator]
COc1ccccc1N1CCN(C(=O)c2cnn3cccnc23)CC1	inconclusive [inhibitor, single point]	–
O=C(NN=C1CCCCCC1)c1cc(-c2ccccc2)nc2ccccc12	inconclusive [inhibitor, single point]	–
CCOC(=O)c1ccc(OS(=O)(=O)c2ccccc2)c(OC)c1	–	inconclusive: -15.5% [inhibitor]
CCC(C)(C(=O)NC1CCCC1)N(CC1CCCO1)C(=O)CNC(=O)c1ccccc1 (stereo not given)	–	inconclusive: -20% [inhibitor]
COc1ccc(-c2nc(Cn3c(SCc4ccc(C)cc4)nc4ccncc43)c(C)o2)cc1OC	inconclusive [inhibitor, single point]	–
CCOC(=O)CS(=O)(=O)c1ccc2ccccc2c1	inconclusive [inhibitor, single point]	–
COc1ccc(N(CC(O)Cn2nnc3ccccc32)S(=O)(=O)c2ccc(C)cc2)cc1 (stereo not given)	inconclusive [inhibitor, single point]	–
COc1cc(NCCCCCCCN)c2ncccc2c1	inactive	–
CCCC[n+]1c(C)sc2ccc(C)cc21	–	inconclusive: 20% [activator]
COc1ccc(C2(O)CCN(Cc3nnnn3Cc3ccc(F)cc3)CC2)cc1	inactive	–
COc1ccc(-n2c(C)cc(/C=C3\SC(=S)NC3=O)c2C)cc1	inconclusive [inhibitor, partial curve]	–
COC(=O)c1cc2c(cc1[N+](=O)[O-])OCO2	–	inconclusive: -17.4% [inhibitor]
Cc1nc(C)c(CCNC(=O)c2ccccc2)s1	inconclusive [inhibitor, single point]	–
